Bridges are numbered along the chain shown (N, C = ends). Where no end group is shown, it is not given here. [ ]: non-standard residue; d: D form. Lys(N3) = [N-]=[N+]=NCCCC[C@H](N)C(=O)O; Pra = C#CC[C@H](N)C(=O)O
System: MrkA-expressing K. pneumoniae cells
Assay: Whole-cell ELISA of biotinylated PCC binding
Conditions: biotinylated PCC at 5 μM

## cy(LLFFA): control compound differing from cy(LLFFF) by a single phenyl moiety ([Lys(N3)]LLFFA[Pra]; triazole 1-7)
  whole-cell ELISA signal, K. pneumoniae BAA 1705 and BAA 2146: low signals that were comparable to secondary antibody controls

From patent US12209142B2, “SARS-CoV-2 epitope-targeted peptide immunostimulants” (Institute for Systems Biology, priority 2020, dated 2025)
